Out of some 420,000 compounds screened, about 64,000 (15%) were called active. The inconclusive results got no clear call from the source; some entries with a clear call stand among them for comparison. The call rests on the fitted dose curve; in most records, active means well fitted inhibition curve with a large enough effect; inconclusive means small, poorly fitted or top-dose-only effect; inactive means flat fitted curve, though single readings scatter. Potencies of inconclusive entries are left out as doubtful fits.
Test: qHTS for Inhibitors of human tyrosyl-DNA phosphodiesterase 1 (TDP1): qHTS in cells in absence of CPT; further: nearly all actives have a fitted effect of over 55% in size
Details: DT40 Tdp1-/- hTDP1 cells, no CPT, ATP luminescence, 48 h; activity change, negative = growth inhibition: at 46.2 µM (top of the series) unless noted
In short: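 Growth kinetics read by CellTiter-Glo luminescence after ≥48 hr at 37 °C. Cells: DT40 Tdp1-/- stably carrying human TDP1, 400 per well, compound exposure in the absence of CPT (DMSO vehicle).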
On the % scale 0 is the no-effect control and ±100 the full control effect; potency means the concentration at half of the fitted maximal effect; tags describe the fitted curve by direction and shape.

**Q.** For Cc1ncc([N+](=O)[O-])n1CCOC(=O)NC(NCc1cccnc1)C(Cl)(Cl)Cl (stereo not given), which Potency is on record?
**A.** inconclusive [inhibitor, single point]

**Q.** With CCCC(=O)Nc1nnc(SCC(=O)Nc2ccc3c(c2)OCCO3)s1 as the molecule, how does the Potency read?
**A.** inconclusive [inhibitor, single point]

**Q.** Which Potency does the source give for CC(C)(C)c1ccc(CNC(=O)c2ccc3c(c2)NC(=O)CO3)cc1 here?
**A.** inconclusive [inhibitor, single point]

**Q.** With CN1CCN(C(=S)C(=O)Nc2ccc(Br)cc2)CC1 as the molecule, how does the Potency read?
**A.** inconclusive [inhibitor, single point]

**Q.** Which Potency does the source give for CSc1c(CC(=O)Nc2ccccc2)n(C)c2ccccc12 here?
**A.** inconclusive [inhibitor, single point]

**Q.** With O=C(Nc1nc2ccccc2[nH]1)c1cccs1 as the molecule, how does the “activity change, negative = growth inhibition” value read?
**A.** inactive: -12.6%

**Q.** For O=C(COc1ccccc1F)NNC(=O)c1ccc(F)c(S(=O)(=O)N2CCOCC2)c1, which Potency is on record?
**A.** inconclusive [inhibitor, single point]

**Q.** Which Potency does the source give for O=C(Cc1ccc(Cl)cc1)NCc1ccccc1Cl here?
**A.** inconclusive [inhibitor, single point]

**Q.** For C=CCn1c(=O)c2c(nc3n2CC(C)CN3Cc2ccccc2)n(C)c1=O (stereo not given), which Potency is on record?
**A.** inconclusive [inhibitor, full curve, poor fit]

**Q.** Which “activity change, negative = growth inhibition” value does the source give for CC(NC(=O)CN1C(=O)NC(C)(c2cccc3ccccc23)C1=O)c1ccccc1 (stereo not given) here?
**A.** inactive: -23.9%

**Q.** For COc1ccc(/C=N/NC(=S)Nc2ccccc2)cc1COc1ccc(Br)cc1, which Potency is on record?
**A.** inconclusive [inhibitor, partial curve, poor fit]

**Q.** With COc1ccc(/C=N/NC(=O)Cn2c(Cc3ccc(OC)c(OC)c3)nc3ccccc32)cc1OC as the molecule, how does the Potency read?
**A.** inconclusive [inhibitor, single point]

**Q.** For COc1ccccc1OCCNC(=O)Nc1cc(F)c(F)cc1Cl, which “activity change, negative = growth inhibition” value is on record?
**A.** inactive: -22.1%

**Q.** For CCCCSc1nc(C)c(C(C)=O)cc1C#N, which “activity change, negative = growth inhibition” value is on record?
**A.** inactive: 4.6%

**Q.** Which “activity change, negative = growth inhibition” value does the source give for O=C(NCc1ccccc1)NC1CCS(=O)(=O)C1 (stereo not given) here?
**A.** inactive: -7.51%

**Q.** With CC1=NN(C(=O)c2cccnc2)C(O)(C(F)(F)F)C1 (stereo not given) as the molecule, how does the “activity change, negative = growth inhibition” value read?
**A.** inactive: -11.8%

**Q.** With O=C(N=Nc1c(O)[nH]c2ccccc12)c1cc(-c2cccs2)[nH]n1 as the molecule, how does the Potency read?
**A.** inconclusive [inhibitor, single point]

**Q.** With COc1cc(NC(=O)c2cc([N+](=O)[O-])ccc2NC(=O)CNC2CCCCC2C)cc(OC)c1 (stereo not given) as the molecule, how does the Potency read?
**A.** inconclusive [inhibitor, single point]

**Q.** For CCCn1c(SCC(=O)Nc2cccc(C)n2)nnc1-c1ccco1, which “activity change, negative = growth inhibition” value is on record?
**A.** inactive: -14.6%

**Q.** For COc1ccc(-c2nnc(SCC(=O)c3cccs3)n2-c2ccc(Cl)cc2)cc1, which Potency is on record?
**A.** inconclusive [inhibitor, single point]

— PubChem BioAssay AID686978 (National Center for Advancing Translational Sciences (NCATS), 2013)
